According to article PMC6919601, “Identification of Plasmodium dipeptidyl aminopeptidase allosteric inhibitors by high throughput screening” (PLoS ONE, 2019):
Screen size: about 110,000 compounds; about 230 (0.21%) showed an effect of 50% or more. The list shows a part of the results.

biological target: DPAP1 (Plasmodium falciparum, UniProt Q8IIJ9); test: primary screen, percent inhibition; read by cleavage of a fluorogenic dipeptide substrate; higher = more effect of the substance; parameters: species or system P. falciparum D10 trophozoite lysates; single well
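Also: 30 min substrate incubation versus DMSO and 10 µM JCP410 controls.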

DPAP1, sequence (Q8IIJ9 whole entry, looked up): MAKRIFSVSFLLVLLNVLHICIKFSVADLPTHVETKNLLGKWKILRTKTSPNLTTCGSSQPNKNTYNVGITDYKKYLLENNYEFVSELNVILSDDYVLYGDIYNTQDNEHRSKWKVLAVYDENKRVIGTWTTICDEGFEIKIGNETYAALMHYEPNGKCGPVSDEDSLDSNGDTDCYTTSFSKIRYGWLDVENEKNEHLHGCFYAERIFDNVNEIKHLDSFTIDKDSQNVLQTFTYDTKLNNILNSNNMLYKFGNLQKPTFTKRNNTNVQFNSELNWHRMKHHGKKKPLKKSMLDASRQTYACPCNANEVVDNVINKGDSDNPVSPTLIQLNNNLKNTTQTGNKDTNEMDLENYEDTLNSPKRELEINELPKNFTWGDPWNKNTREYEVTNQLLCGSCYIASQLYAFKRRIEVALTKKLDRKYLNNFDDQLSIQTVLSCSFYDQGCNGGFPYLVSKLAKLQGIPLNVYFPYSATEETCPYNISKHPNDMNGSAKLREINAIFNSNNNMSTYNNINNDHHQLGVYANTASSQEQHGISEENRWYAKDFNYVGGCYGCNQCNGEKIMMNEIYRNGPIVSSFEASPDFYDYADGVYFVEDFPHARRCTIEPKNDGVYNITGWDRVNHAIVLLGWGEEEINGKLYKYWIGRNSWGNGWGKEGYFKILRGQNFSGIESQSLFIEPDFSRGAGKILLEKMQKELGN

SMILES | % Inhibition @ 10 uM [%]
CCc1ccc(-c2cn3c(n2)sc2cc(C(=O)NCCN4CCCC4)ccc23)cc1 | 5.11
CC1=C(C(=O)Nc2ccc(Cl)cc2)C(c2ccc(N(C)C)cc2)NC(S)=N1 (stereo not drawn) | -0.436
Fc1ccccc1CSc1nncn2c1cc1sccc12 | -5.3
COc1cc2c(cc1OC)C(C(=O)N1CCCC1)C(c1ccccc1F)N(C)C2=O (stereo not drawn) | -4.65
CCOC(=O)c1cc2c(=O)n3ccccc3nc2n(C(C)C)/c1=N\C(=O)C(C)(C)C | 3.61
CCC(=O)N1N=C(c2cccs2)CC1c1ccc(OC)cc1 (stereo not drawn) | 2.26
COc1ccc(CNc2ccc(SC)cc2)cc1 | 1.38
Cc1ccc(N2CC(C(=O)NC3CC3)CC2=O)cc1 (stereo not drawn) | -7.91
CCOc1ccc(C(=O)Nc2ccc(NC(C)=O)cc2)cc1 | 5.07
c1cncc(CNCc2ccco2)c1 | -1.08
Cc1ccc(-c2nc(-c3cccnc3)no2)c(C)c1 | -3.53
Cn1c(SCc2nc(-c3ccccc3)no2)nnc1-c1cccs1 | -2.91
CC1(C)CC(=O)C2=C(C1)OC1=C(C(=O)CC(C)(C)C1)C2c1c(O)ccc2ccccc12 | 1.13
O=C(Nc1ccc(F)cc1)c1ccccc1NC(=O)C1CC=CCC1C(=O)O (stereo not drawn) | -2.76
CC1CCCCN1C(=O)CSc1nc2ccsc2c(=O)n1Cc1ccccn1 (stereo not drawn) | 10.4
O=C(Nc1ccccc1)c1ccc(N2C(=O)C3C4C=CC(C4)C3C2=O)cc1 (stereo not drawn) | -3.85
CC(C)C[C@H](NC(=O)c1ccc(Cc2ccccc2)cc1)C(=O)NCC#N | 1.71
CCC(C)NC(=O)C1CCCN(c2nnc(N3CCCC3=O)s2)C1 (stereo not drawn) | -4.68
COc1ccc2c(Sc3ccccc3)c(C(=O)N3CCN(c4ccccn4)CC3)[nH]c2c1 | -7.17
CCCCNC(=O)C1CCC(C/N=c2/c(N3CCC(C)CC3)c(O)c2=O)CC1 (stereo not drawn) | -3.96
CN(C)CCOC(=O)c1ccc2[nH]c3c(c2c1)CSCC3 | 9.31
CC(C)n1c(NC2CCCCC2)nc2c1c(=O)[nH]c(=O)n2C | -1.11
N=C1S/C(=C\c2ccc(-c3cccc(C(F)(F)F)c3)o2)C(=O)N1c1nonc1N | 0.727
COc1ccc2[nH]c3c(=O)n(CCCCC(=O)NCCCN4CCCC4=O)c(=S)[nH]c3c2c1 | 8.62
COc1ccccc1C(=O)Nc1cc2c(cc1C(C)=O)OCO2 | 3.67
Sc1nnc(-c2ccccc2Cl)n1C1CCCCC1 | -1.32

SMILES | % Inhibition @ 10 uM [%]
O=C(O)c1ccc(C(=O)c2ccc([N+](=O)[O-])cc2)cc1 | -3.65
O=C1NC2(CCCC2)Cc2ccccc21 | 1.54
CCO/C(O)=C1/C(C)=Nc2ncnn2C1c1cc(Br)ccc1F (stereo not drawn) | -3.37
CC(C)(C)c1ccc(C(=O)N/C(=C\c2ccco2)C(=O)NCCC(=O)O)cc1 | -3.75
CC(=O)N1CCC2(CC1)OC(=O)C(C)=C2C(=O)NC(C)c1ccccc1 (stereo not drawn) | -7.03
CCC1CCCCN1CCCNC(=O)C1CCCN(S(=O)(=O)N2CCOCC2)C1 (stereo not drawn) | 0.0525
COc1ccc(C)cc1NC(=O)c1ccc(Cn2nc(C)cc2C)o1 | -0.891
CCc1nnc(NC(=O)CSc2n[nH]c(CC(C)C)n2)s1 | -3.21
Nc1c(C(=O)Nc2ccccc2)sc2sc(C(=O)Nc3ccccc3)c(N)c12 | 6.31
CCCCCCNS(=O)(=O)c1ccccc1[N+](=O)[O-] | 4.17
CS(=O)(=O)N1CCC(C(=O)NCc2cccs2)CC1 | -1.34
O=C(Nc1ccc(F)cc1F)c1ccc(Cl)cc1Cl | 3.53
O=[N+]([O-])c1ccc(-c2nc(-c3ccccc3)no2)cc1 | -10.2
Cc1cc(=O)oc2c(CN3CCOCC3)c(O)c(Cl)cc12 | 2.26
CCOc1cc(C2C(C#N)=C(N)Oc3c2oc(CO)cc3=O)ccc1OCCN1CCOCC1 (stereo not drawn) | 4.09
Cc1cc2c3nonc3ccc2n1-c1ccccc1 | -6.36
Cn1c(=O)c2c(nc(CN3CCOCC3)n2Cc2ccccc2)n(C)c1=O | -2.29
CCCc1cc(O)c2c(C)cc(=O)oc2c1 | 6.33
O=C(CCNc1c(N2CCCC2)c(=O)c1=O)NCc1ccccc1 | 1.68
CCCCSc1nc2c(c(=O)[nH]c(=O)n2C)n1C(C)C | -6.36
CCN(CC)CCCNc1nc(C)cc(COC)c1C#N | -8.98
O=C1CCSc2c1cccc2C(=O)NCc1cccc(Cl)c1 | -3.49
COc1cccc(/C=N/NC(N)=S)c1 | -1.03
COc1cc(CNCCC2CCOC(C)(C)C2)ccc1O (stereo not drawn) | 3.59
O=[N+]([O-])c1ccc2[nH]c(-c3ccccc3)cc2c1 | -6.99
O=C(c1ccc(-c2nnc(-c3ccccc3)o2)cc1)N1CCCCCC1 | -1.26

SMILES | % Inhibition @ 10 uM [%]
O=c1oc2ccccc2cc1-c1ccc([N+](=O)[O-])cc1 | -0.9
CCOC(=O)C1=C(N)Oc2ccc3ccccc3c2C1c1ccncc1 (stereo not drawn) | -4.93
CCOc1ccccc1NC(=O)COc1c(C)ccc(C)c1C | 0.956
C=CCN1CCN(c2ccncc2S(=O)(=O)N2CCCCC2)CC1 | 1.94
Cc1ccc(NS(=O)(=O)c2ccccc2)cc1O | 3.91
CCOc1ccc(-c2cc(N)n(S(=O)(=O)c3ccc(F)c(C)c3)n2)cc1 | -5.76
COc1cc(NC(=O)COc2ccccc2C(C)C)c(OC)cc1Cl | -5.07
Cc1ccccc1CN1CCC(CNc2ncnc3onc(C)c23)CC1 | -7.93
CC(=O)c1coc2c1cc(O)c1ccccc12 | -3.48
Cc1ccc(NS(=O)(=O)c2ccc(NC(=O)CCC(=O)O)cc2)cc1C | -4.26
O=C(O)c1ccccc1C(=O)c1ccc(Oc2ccccc2)cc1 | 13.3
COc1cccc(C(=O)N2CCN(Cc3ccccc3OC)CC2)c1 | 2.45
CCCCC(=O)C1CCOC(C)(C)C1 (stereo not drawn) | -2.44
O=c1/c(=C/c2ccccc2Br)sc2nc(C3COc4ccccc4O3)nn12 (stereo not drawn) | 3.54
COC(=O)C1=C(C)N(C)C(C)=C(C(=O)OC)C1c1ccccc1C | -0.142
COc1cccc(C2C(C#N)=C(N)OC3=C2C(=O)CC(c2ccccc2)C3)c1 (stereo not drawn) | 6.18
O=C(c1cc(-c2ccccc2)nc2ccccc12)N1CCCCC1 | 3.65
CC(C)c1ccc(-c2c(NCCC3=CCCCC3)c(=O)c2=O)cc1 | 0.589
N#C/C(=C\c1ccc([N+](=O)[O-])cc1)c1nc(C2CC2)cs1 | -5.94
CCOC(=O)N1CCC(NC(=O)c2cc(C(=O)NC3CCCC3)ccc2CO)CC1 | 0.708
O=C1c2ccccc2-c2onc3ccc(N4CCCC4)c1c23 | 15.5
COc1ccccc1[C@H](C)C[C@H](NC(=O)OCc1ccccc1)C(=O)NCC#N | -5.2
CCCCC(=O)Nc1ccc(-c2nc3cc(Cl)ccc3o2)c(O)c1 | 2.38
CCCC1=C(C(=O)OCC)C(c2ccc(F)cc2)C(C#N)=C(N)O1 (stereo not drawn) | -1.93
COC(=O)c1cc(S(=O)(=O)NCCc2sccc2C)c[nH]1 | -6.25
COc1ccc(C(=O)CCC(=O)Nc2cccc(C)c2)cc1 | -1.26

SMILES | % Inhibition @ 10 uM [%]
O=C(c1ccccc1Br)N1CCN(c2ccc(F)cc2)CC1 | 3.95
COc1ccc(OC)c(C2C(C(=O)Nc3ccccc3)=C(C)Nc3ncnn32)c1 (stereo not drawn) | -1.2
Cc1ccc(/C=C(/C#N)c2nc(-c3ccccc3)cs2)o1 | -2.28
CC(CCc1ccccc1)NC(=O)Cn1c2ccccc2c2cnnc(O)c21 (stereo not drawn) | -2
COc1ccc(C(=O)Nc2cc(OC)c(Cl)cc2OC)c(OC)c1 | 9.94
Cc1cc(N(C)CCC#N)n2nc(C)c(-c3ccc(Cl)cc3)c2n1 | -6.4
Cc1ccccc1-c1noc(CC#N)n1 | -3.85
Cc1ccc(Cn2ccn(Cc3ccc(F)cc3)c(=O)c2=O)cc1 | 0.0845
Cc1ccc(-c2cc3c4c(C)n(Cc5ccccc5)c(C)c4c(C)nn3c2)o1 | -2.92
COC(=O)c1c(SC)nc2ccccc2c1OCc1ccc(F)cc1 | -6.5
Cc1cc(N2CC(C)OC(C)C2)n2c(nc3ccccc32)c1C#N (stereo not drawn) | 18.2
Cc1cccc(Cn2c(C)c(CNCCc3ccc(S(N)(=O)=O)cc3)c(C(=O)O)c2C)c1 | 2.99
COc1cc(C2C3=C(CC(C)(C)CC3=O)OC3=C2C(=O)CC(C)(C)C3)c(Br)cc1O | 7.76
O=C(c1ccc(Cl)cc1)N1CCN(c2cccc(Cl)c2)CC1 | -3.27
CN1CC2(C(=O)c3ccccc3)CN(C)CC(C(=O)c3ccccc3)(C1)C2 | -1.81
COc1ccccc1C(=O)Nc1ccc2oc(-c3ccncc3)nc2c1 | 1.08
COc1ccc(NC(=O)CSc2nc3ccc(OC)cc3cc2C#N)c(OC)c1 | -0.941
Cc1oc(-c2ccccc2Cl)nc1CSCC(=O)NC1CC1 | -2.85
Cc1[nH]c2ccccc2c1C(=O)CSc1nc[nH]n1 | -5.11
CC1=C(C)CC2C(=O)N(c3ccc(N4CCOCC4)cc3)C(=O)C2C1 (stereo not drawn) | 0.0792
O=C1c2ccccc2C(=O)N1Cc1cccc(O)c1 | 0.0152
CNC(=O)CCc1nc(-c2ccc(OC)c(OC)c2)no1 | -6.85
COc1ccc(C2=N/C(=C\c3ccc(C)cc3)C(=O)O2)c(Cl)c1 | -2.54
Cc1ccc(S(=O)(=O)N(C)C)cc1N | -0.453
